In PubChem BioAssay (Tox21):
“And” between values parts separate entries of the source, which are not always exact repeats. Equal entries are not always repeated. The inconclusive results got no clear call from the source; some entries with a clear call stand among them for comparison. A potency beside an inconclusive call is a rough fit, not a confirmed value. The source made the active and inactive calls. Calls come from the whole dose curve; as a rule, active = well fitted cell-killing curve with a large enough effect in the repeat runs; inconclusive = weak or mixed curves, or effect the other way; inactive = flat fitted curve, though single readings scatter.
Potency is the fitted concentration of half-maximal effect; tags give direction and shape of the fitted curve.

Assay: Caspase-3/7 induction in HepG2 cells by small molecules, qHTS cell viability counter screen (AID 1346981); note: nearly all actives have a fitted effect of over 30% in size
Conditions: CellTiter-Fluor fluorescence, 17 h; series mostly up to 92.4 µM
Summary of the method: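 CellTiter-Fluor fluorescence measured viability in the same wells used for Caspase-Glo 3/7. HepG2 (wild type) at 2,000 cells/well were pre-incubated 5 hr, dosed, and given reagent at 16 hr, with 1 hr further at 37C.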
In the case of `O=C/C(Cl)=C(/Cl)C(=O)O`, the Potency is reported as inconclusive: 21.7 µM [rising, partial curve].
With `C[C@H]1CC[C@@H]2[C@@H](C)[C@H]3[C@H](C[C@H]4[C@@H]5CC=C6CC(O[C@@H]7O[C@H](CO)[C@H](O)[C@H](O[C@@H]8O[C@H](CO)[C@@H](O)[C@H](O)[C@H]8O)[C@H]7O[C@H]7O[C@@H](C)[C@H](O)[C@@H](O)[C@H]7O)CC[C@]6(C)[C@H]5CC[C@]34C)N2C1` (stereo partly specified) the Potency was active: 31.6 µM.
For `CN1C[C@H](C(=O)N[C@]2(C)O[C@@]3(O)[C@@H]4CCCN4C(=O)[C@H](Cc4ccccc4)N3C2=O)C=C2c3cccc4[nH]cc(c34)C[C@H]21`, the Potency was active: 30.8 µM and active: 22.6 µM.
With `FC(F)C(F)(F)OCC(Cn1cncn1)c1ccc(Cl)cc1Cl` (stereo unspecified) the Potency was inconclusive: 68.2 µM [cytotoxic, single point].
With `NNC(=S)NN` the Potency was inconclusive: 141 µM [rising, single point] and inconclusive: 30.6 µM [rising, single point].
With `C[C@H]1CCCC(=O)CCC/C=C/c2cc(O)cc(O)c2C(=O)O1` the Potency was active: 46.8 µM and active: 22.4 µM.
For `CCCCCCCCCc1ccc(O)cc1`, the Potency was inconclusive: 69.3 µM [cytotoxic].
With `C=CC(=O)OCC(COC(=O)C=C)(COC(=O)C=C)COC(=O)C=C` the Potency was active: 15.4 µM.
For `CC1(C)[C@H](C(=O)O[C@H](C#N)c2cccc(Oc3ccccc3)c2)[C@@H]1/C=C(\Cl)C(F)(F)F`, the Potency was inconclusive: 17.9 µM [rising, partial curve].
With `CO/N=C(\C(=O)OC)c1ccccc1CO/N=C(\C)c1cccc(C(F)(F)F)c1` the Potency was inconclusive: 43.3 µM [cytotoxic, partial curve, poor fit].
With `C[C@@H]1O[C@@H](O[C@@H]2C=C3CC[C@@H]4[C@H](CC[C@]5(C)[C@@H](c6ccc(=O)oc6)CC[C@]45O)[C@@]3(C)CC2)[C@H](O)[C@H](O)[C@H]1O` the Potency was inconclusive: 5.96 µM [cytotoxic, partial curve].
With `Clc1ccc(C(Cl)(Cl)Cl)cc1Cl` the Potency was inconclusive: 26.7 µM [cytotoxic, single point].
With `CS(=O)(=O)c1ccc(C(=O)C2C(=O)CCCC2=O)c([N+](=O)[O-])c1` the Potency was inconclusive: 27.8 µM [cytotoxic, single point].
In the case of `O=C1C(Cl)=C(Cl)C(=O)c2ccccc21`, the Potency is reported as inconclusive: 77 µM [cytotoxic, single point].
For `CN1CCc2cc(Cl)c(O)cc2[C@H]2c3ccccc3CC[C@@H]21`, the Potency was inconclusive: 29.8 µM [cytotoxic, partial curve].
In the case of `Nc1ccc(-c2ccc(N)c(N)c2)cc1N`, the Potency is reported as inconclusive: 54.5 µM [cytotoxic, partial curve].
With `Oc1cc(Cl)c(Cl)cc1Cl` the Potency was inconclusive: 68 µM [cytotoxic, single point].
With `CC(=O)[O][Hg][c]1ccccc1` the Potency was active: 5.4 µM and active: 5.45 µM and active: 11.9 µM.
With `S=C(SSC(=S)N1CCCCC1)N1CCCCC1` the Potency was inconclusive: 33.5 µM [cytotoxic, single point].
In the case of `N#Cc1sc2c(=O)c3ccccc3c(=O)c=2sc1C#N`, the Potency is reported as active: 21.7 µM.
For `C=C(C)C(=O)[O][Sn]([CH2]CCC)([CH2]CCC)[CH2]CCC`, the Potency was active: 2.43 µM.
For `ClC1=C(Cl)C2(Cl)C3C(Cl)C(Cl)CC3C1(Cl)C2(Cl)Cl` (stereo unspecified), the Potency was inconclusive: 68.4 µM [cytotoxic, single point] and inconclusive: 68.6 µM [cytotoxic, single point].
For `O=[N+]([O-])c1cc([N+](=O)[O-])c2ccccc2c1`, the Potency was inconclusive: 15.4 µM [cytotoxic, full curve].
With `COP(=S)(OC)Oc1ccc([N+](=O)[O-])cc1` the Potency was inconclusive: 48.6 µM [cytotoxic, partial curve].
In the case of `CC(C)NC(=O)N1CC(=O)N(c2cc(Cl)cc(Cl)c2)C1=O`, the Potency is reported as inconclusive: 68.6 µM [cytotoxic, single point].
In the case of `CN(C)[C@@H]1C(=O)C(C(N)=O)=C(O)[C@@]2(O)C(=O)C3=C(O)c4c(O)cccc4[C@@](C)(O)[C@H]3C[C@@H]12`, the Potency is reported as inconclusive: 68.8 µM [cytotoxic, single point] and inconclusive: 29.8 µM [cytotoxic, single point].
